Results published in PubChem BioAssay AID1346428 (National Center for Advancing Translational Sciences (NCATS), 2018).
In all, about 48,000 compounds went through this assay and about 1,200 (2.5%) were called active. About 2% were inconclusive and are not listed.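 The calls were made as follows: active = activation of at least 60% and not above a set upper limit (about 1 call in 100 departs from these limits); inconclusive = activation of 40% to 60%, or above that upper limit; inactive = activation under 40%.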 The list shows a part of the results.

What follows are compounds tested against Probable G-protein coupled receptor 32 (Homo sapiens) (UniProt O75388) (assay: qHTS for Agonists of Human Resolvin D1 Receptor DRV1). Conditions: CHO-K1 GPR32 beta-arrestin PathHunter luminescence, 90 min; at 76.9 µM; stronger effect = higher value; zero percent set by DMSO-only wells.
How it was run: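 PathHunter beta-arrestin recruitment in CHO-K1 cells stably expressing ProLink-tagged GPR32. Cells were exposed to compound for 90 min at 37 C, then chemiluminescence was read after 1 h detection at ambient temperature; DMSO served as basal control.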
Also: 0% is about no effect.

Sequence of UniProt O75388 (O75388 whole entry, looked up): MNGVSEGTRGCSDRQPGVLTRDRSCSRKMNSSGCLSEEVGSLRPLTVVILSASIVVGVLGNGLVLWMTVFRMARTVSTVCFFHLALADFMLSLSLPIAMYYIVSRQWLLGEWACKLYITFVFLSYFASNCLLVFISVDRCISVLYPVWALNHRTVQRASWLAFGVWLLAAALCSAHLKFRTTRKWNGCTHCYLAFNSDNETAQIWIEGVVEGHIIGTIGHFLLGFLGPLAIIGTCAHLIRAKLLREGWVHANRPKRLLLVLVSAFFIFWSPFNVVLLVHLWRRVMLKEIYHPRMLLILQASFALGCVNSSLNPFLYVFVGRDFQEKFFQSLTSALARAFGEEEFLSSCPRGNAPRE

activation, inactive:
COc1ccc(C(=O)NCC(c2cccnc2)N2CCN(c3ccccc3OC)CC2)cc1 (stereo not drawn) 12.6%
COc1cccc(NC(c2nnc(-c3ccccc3)o2)c2ccc(F)cc2Cl)c1 (stereo not drawn) -13.2%
COc1ccc(Br)cc1CNC(=O)CN1C(=O)CCCc2ccccc21 20.9%
CC(C)(C)c1ccc(C(=O)Nc2nc3nc(-c4ccccc4)cc(=O)n3[nH]2)cc1 47.6%
Cc1ccc(NC(=O)Cn2c(SCc3cccc(F)c3)nc3ccncc32)c(C)c1 -0.997%
C#CC(C)(CC)NC(=O)Cn1nnc(-c2ccc(OCc3ccccc3Cl)cc2)n1 (stereo not drawn) 9.7%
COCCCNC(=O)C1CCCN(c2ncnc3onc(C)c23)C1 (stereo not drawn) 26.5%
COc1ccc(CCNC(=O)c2ccc3c(Cl)c4c(nc3c2)CCCC4)cc1OC 24.3%
Cc1c(CCC(=O)NCc2ccc(F)cc2)c(=O)oc2cc(O)ccc12 -0.264%
CCCN(CCC)C(=O)c1c[nH]c2ccc(S(=O)(=O)N(C)c3ccc(OCC)cc3)cc2c1=O -6.92%
Cc1ccccc1OCC(=O)Nc1ccc(C(=O)OCc2cc(=O)n3c(C)csc3n2)cc1 -11.7%
CCc1ccc(C(=O)c2cn(CC(=O)Nc3ccc4c(c3)OCCO4)c3ccc(CC)cc3c2=O)cc1 9.27%
Cc1ccc2oc(C(=O)Nc3nc(-c4ccc(F)cc4)ns3)c(C)c2c1 -0.157%
COc1ccc(C2c3c(oc4cc(C)cc(C)c4c3=O)C(=O)N2Cc2ccco2)cc1OC (stereo not drawn) 11.1%
COc1cccc(NC(=O)CSC2=Nc3ccccc3C3=NC(CC(=O)NCc4cccs4)C(=O)N23)c1 (stereo not drawn) -13.4%
CC(=O)N1CCN(c2nc3c(F)cc(F)cc3s2)CC1 -3.89%
COc1ccc(Cn2c(CNC(=O)Cc3cccc([N+](=O)[O-])c3)nc3cccnc32)cc1 -32%
Cc1cccc(N2CCN(C(=O)c3cc4c(=O)[nH]c5ccc(C)cc5c4s3)CC2C)c1 (stereo not drawn) -2.56%
COc1ccc(CNC(=O)CSCc2cnn(-c3ccccc3)c2-n2cccc2)cc1OC 12.2%
Cc1ccc(OCCCn2c(-c3ccc(Cl)cc3)nc3ccccc3c2=O)c(C)c1 -6.98%
Clc1ccc(-n2c(Cc3ccccc3)nnc2SCc2nc(-c3cccs3)no2)cc1 -23.2%
COc1ccc(NC(=O)c2oc3ccccc3c2NC(=O)C2CCCCC2)c(OC)c1 -3.86%
Cc1cccc(-n2c(=O)c3c4c(sc3n3c(C)nnc23)CCCC4)c1 -4.15%
Nc1c(C(=O)Nc2ccccc2)sc2nc3c(cc12)CN(Cc1ccccc1)CC3 -5.19%
Cc1ccc(NC(=O)C2CCCN(S(=O)(=O)c3c(C)noc3C)C2)cc1 (stereo not drawn) -6.08%
NS(=O)(=O)c1ccc(C(=O)O)cc1 -2.1%
CCOC(=O)c1scc(-c2ccc(C)cc2)c1S(=O)(=O)Nc1cc(OC)ccc1OC 0.116%
CCCCN(C)C(=O)c1ccc2c(c1)N(Cc1cccc(F)c1)C(=O)c1ccccc1S2 -53.3%
CCOc1cc(C#N)c(-n2nnc3c(sc4nc(C)cc(C)c43)c2=O)cc1OCC 1.17%
Cc1cc(C)c(/C=C/c2onc(C)c2S(=O)(=O)N2CCC(C(=O)NCCc3ccccc3)CC2)c(C)c1 -19.7%
Cc1cccc(N(CC(=O)NCCSCc2ccccc2)S(=O)(=O)c2ccccc2)c1C -0.289%
O=C(Cn1c(=O)c2cccn2c2ccccc21)NCc1ccccc1F -5.39%
COC(=O)c1ccc(NC(=O)Cn2cnc3c2c(=O)n(C)c(=O)n3C)cc1 -10.9%
CCc1cccc(C)c1NC(=O)C1CCCN1S(=O)(=O)c1cccc2nsnc12 (stereo not drawn) -6.81%
CCn1c(=O)c(=O)n(CC)c2cc(S(=O)(=O)Nc3ccc(C)cc3)ccc21 -3.7%
CCCC(=O)N1CCN(c2nc3ccc(F)cc3s2)CC1 6.27%
Cc1ccc(C(=O)c2cn(Cc3ccccc3)c3nc(C)ccc3c2=O)cc1 47.2%
Cc1nc(N2CCCC2)c2c(C(=O)N3CCN(c4cc(Cl)ccc4C)CC3)c(C)oc2n1 -27.3%
CC(C)N(C(=O)Cn1cc(S(=O)(=O)Cc2ccc(Cl)cc2)c2ccccc21)C(C)C -12.8%
COc1cc(Nc2nc(SCC(=O)c3ccc(Cl)c(Cl)c3)nc3ccccc23)cc(OC)c1 -25.5%
O=C(CCC1N=C2c3ccccc3N=C(SCC(=O)Nc3ccc(F)cc3)N2C1=O)NCc1ccco1 (stereo not drawn) -8.65%
O=C(Nc1ccc2nc3n(c(=O)c2c1)CCCCC3)c1cccc(C(F)(F)F)c1 -2.97%
Nc1nn(-c2ccccc2)nc1C(=O)OCc1c(F)cccc1Cl -22.6%
Cc1ccc(N(Cc2cccs2)C(=O)c2ccco2)cc1 -20.6%
COc1ccc(-n2c(SCC(=O)NCc3ccccc3)nc3c([nH]c4ccccc43)c2=O)cc1 -7.76%
Nc1c(S(=O)(=O)O)cc(Nc2ccc(Nc3nc(Cl)nc(Nc4ccc(S(=O)(=O)O)cc4)n3)c(S(=O)(=O)O)c2)c2c1C(=O)c1ccccc1C2=O -54.7%
COc1ccc(NC(=O)CC2Nc3ccccc3NC2=O)cc1 (stereo not drawn) -27.7%
COc1ccc(Nc2nn(-c3ccc(OC(F)(F)F)cc3)nc2C(C)=O)cc1 7.05%
Cc1cc(C(=O)NCc2ccccc2)c2c(C)nn(-c3cccc(F)c3)c2n1 -18.4%
CCCCN(C)C(=O)Cn1cnc2sc(C)c(S(=O)(=O)N3CCC(C)CC3)c2c1=O -8.74%
COc1ccc(OC)c(NC(=O)c2ccc3c(Cl)c4c(nc3c2)CCCC4)c1 -16.2%
COc1cc(OC)c(NC(=O)N2CCC(CN3CCCC3)CC2)cc1Cl -13.8%
CCOC(=O)c1ccc(Nc2nn3c(=O)c4ccccc4nc3s2)cc1 5.13%
COc1ccccc1Nc1ncnc2scc(-c3ccc(F)cc3)c12 -7.13%
Cc1nn(-c2ccccc2)c2c1N(CC(=O)N1CCN(c3ccccc3F)CC1)C(=O)CS2 29.2%
Cc1ccc(CNc2ccc3cc(S(=O)(=O)N4CCCCC4)ccc3n2)cc1 -18.3%
CCN(CC)c1ccc(C2Nc3ccccc3-c3cc(C)nn32)cc1 (stereo not drawn) -18.7%
Cc1ccc(S(=O)(=O)c2nc(-c3ccc(F)cc3)oc2N2CCN(c3ccccc3)CC2)cc1 -18.8%
COc1ccc(C2(CNC(=O)C(=O)Nc3ccccc3C)CCCC2)cc1OC -18.1%
COc1ccc(CNC(=O)c2cccn2-c2nnc(N3CCCC3)s2)c(OC)c1 27%
CCCCN(CCCNC(=O)c1cc(Nc2ccccc2OC)nc2ccccc12)c1ccccc1 -0.0029%
CCC(CC)c1nn2c(=O)cc(COc3ccc(NC(=O)c4ccccc4C)cc3)nc2s1 26.2%
COc1cc(NC(=O)CC2C(=O)OCCN2Cc2ccccc2)cc(OC)c1 (stereo not drawn) -3.25%
Cc1ccccc1NC(=O)c1ccc2[nH]c(C)c(C)c2c1 -4.46%
COc1cc(NS(=O)(=O)c2ccc(NC(=O)c3cccc(F)c3)cc2)nc(OC)n1 8.85%
COc1ccc(C(=O)NCC(c2cccnc2)N2CCN(c3ccccc3)CC2)cc1 (stereo not drawn) 5.34%
CCCc1nn2c(=O)cc(COC(=O)c3cccc(NC(=O)c4cccs4)c3)nc2s1 -39.4%
CCc1cccc(C)c1NC(=O)CCS(=O)(=O)c1cc(Br)cc2c1N(C(=O)C1CC1)CC2 -13%
O=C(Nc1ccc(C(=O)OCc2cc(=O)n3c4c(sc3n2)CCCC4)cc1)c1ccc(F)cc1 -10.1%
O=C(CCCCn1c(=O)c2ccccc2n(CC(=O)Nc2cccc(C(F)(F)F)c2)c1=O)NCc1ccc2c(c1)OCO2 -30.3%
CCc1nn2c(-c3ccccc3OC)ccnc2c1-c1ccccc1 -7.85%
Cc1c(Cl)cccc1NC(=O)Cn1c(=O)n(Cc2ccco2)c(=O)c2sc3ccccc3c21 -7.52%
COc1ccc(S(=O)Cc2ccc(C(=O)N3CCN(c4cccc(C)c4C)CC3)o2)cc1 (stereo not drawn) 4.18%
Cc1c(C(=O)NCc2ccc(Cl)cc2)sc2nc3n(c(=O)c12)CCCCC3 -7.68%
Cc1ccc(-n2nnc(-c3nc(-c4cccs4)no3)c2N)cc1C 3.36%
Cc1ccccc1NC(=O)c1ccc(F)c(S(=O)(=O)N2CCN(c3ccccc3F)CC2)c1 -16.8%
COc1ccc(-c2nc(CSc3nncn4c3cc3oc(C)cc34)c(C)o2)cc1 -7.98%
O=C(NCCc1ccccc1)C(=O)NCC(c1ccco1)S(=O)(=O)c1cccs1 (stereo not drawn) -11.3%
CCOC(=O)c1ccccc1NC(=O)CN1CCCN(Cc2cc(C)ccc2C)S1(=O)=O -0.744%
COc1cc(NC(=O)CN2C(=O)c3ccccc3Sc3ccc(C(=O)N4CCCC4)cc32)cc(OC)c1 -16.3%
COc1ccc(OC)c(CCNC(=O)c2ccc3c(c2)c(C)c(C)n3Cc2ccccc2)c1 -11.5%
CCOC(=O)c1[nH]c2ccccc2c1NC(=O)c1ccccc1F 17.5%
CCN1CCN(CCCNC(=O)CS(=O)(=O)Cc2nc(-c3cccc(OC)c3)oc2C)CC1 -14.1%
